A compilation of properties of binary mixtures (doi:10.1021/je300132e)
The densities may have been worked out from excess volumes.

Experiment: xn = mol fraction of the nth substance listed
Settings: 101 kPa

CC[NH+](C)CC.CS(=O)(=O)[O-] + O
mass density [kg/m3]
Settings	x2 = 0.372	x2 = 0.449	x2 = 0.507	x2 = 0.624	x2 = 0.707
293.15 K	–	1133.6	1133	1128.4	1122.2
313.15 K	1122.9	1120.5	–	1115.4	–
333.15 K	1109.7	–	1106.7	1102.3	1096.4
353.15 K	1096.7	–	1093.5	1089.5	–

CC(=O)[O-].CC[n+]1ccn(C)c1 + O
mass density [kg/m3]
Settings	x2 = 0.347	x2 = 0.517	x2 = 0.578	x2 = 0.627	x2 = 0.705
293.15 K	1104.4	1107.2	1108.7	1108.5	–
313.15 K	–	1095.1	1097.3	1095.7	1094.9
333.15 K	1080.7	1083	1085.1	1083.1	1081.5
353.15 K	1068.5	–	1073.1	1070.9	1069.5
